ChEMBL document CHEMBL4888484, “Replenishing the malaria drug discovery pipeline: Screening and hit evaluation of the MMV Hit Generation Library 1 (HGL1) against asexual blood stage Plasmodium falciparum ,using a nano luciferase reporter read-out” (2022)
Screen size: about 150,000 compounds; about 540 (0.36%) showed an effect of 50% or more. The list shows a part of the results.

The compounds below were run on Plasmodium falciparum (assay: Primary screen in NF54 nanoGlo assay, in single point, at 2uM, 72h; a lower Z score goes with more inhibition). Conditions: timepoint 72 hour.
Type: functional, Erythrocyte

| Structure (SMILES) | % Inhibition [%] | Z score |
| --- | --- | --- |
| Nc1cc(=O)[nH]c(NCCc2ccccc2)n1 | 5 | -0.71 |
| CN(C)c1ccc(CN2CCCC[C@H](N)C2)cn1 | -4 | 0.83 |
| C=CCNC(=O)C1CCC(c2cccc(C)c2)N(C(=O)c2ccc(F)cc2)C1 (stereo not drawn) | -10 | 0.94 |
| N#Cc1ccc(OC2CCC(NC(=O)Nc3cccnc3)CC2)nc1 (stereo not drawn) | 3 | -0.27 |
| CC(=O)NC1(c2noc(C(F)(F)F)n2)CCCCCC1 | -9 | 1.78 |
| Cc1ccc(-n2nc3c(N4CCN(C(=O)Nc5ccc(C)c(Cl)c5)CC4)nnc(C)c3c2C)cc1 | -1 | 0.11 |
| O=C(CCc1nnc(CCCCc2ccccc2)o1)N1CCCC1 | -9 | 1.38 |
| CC(C)c1nnc(CN2C[C@@H]3CCC[C@]3(C(N)=O)C2)o1 | -2 | 0.41 |
| N#Cc1cn(-c2cccc(COC[C@H]3CCCCO3)c2)c(=O)[nH]c1=O | -14 | 1.43 |
| c1ccc(-c2cnc3n2C[C@H](CNCc2c[nH]c4ccccc24)OC3)cc1 | 5 | -0.84 |
| Cc1cccc(NC(=O)CC2(C(=O)O)Cc3ccccc3C2)c1 | -2 | 0.26 |
| CCOc1ncccc1-c1cnn([C@@H]2CCCCO2)c1 | -10 | 0.94 |
| Cn1cc(CNC2CCCCCC2C(N)=O)cn1 (stereo not drawn) | -9 | 1.43 |
| COc1cc(CN(C)[C@H]2CCc3nnc(C4CCOCC4)n3CC2)cc(OC)c1 | 45 | -6.02 |
| Cn1c(CNC(=O)CC2(CS(C)(=O)=O)CC2)nc2ccc(F)cc21 | -2 | 0.27 |
| O=C(COc1ccc(Cl)cc1)N1CCn2cnnc2C1 | 5 | -0.89 |
| CN(C)c1ccc2c(c1)CN(C(=O)c1ccn(C)n1)CCO2 | -3 | 0.53 |
| COC(=O)[C@H]1CC[C@H](C(=O)N2CCC3CCC(C2)N3C(C)C)CC1 (stereo partly drawn) | -2 | 0.19 |
| O=C(CCOc1ccccc1Cl)NCCN1CCOCC1 | -11 | 1.47 |
| O=S(=O)(Cc1cc(Cl)cc(Cl)c1)NCCCCn1ccnc1 | 33 | -4.43 |
| C[C@H](NCC(=O)Nc1ccc2c(c1)OC1(CCCCC1)O2)c1ccc(F)c(F)c1 | -8 | 1.02 |

| Structure (SMILES) | % Inhibition [%] | Z score |
| --- | --- | --- |
| O=C(NCc1cccnc1)[C@H]1CC(=O)N(CCc2c[nH]c3ccc(Cl)cc23)C1 | -5 | 0.91 |
| CC(C)[C@H](NC(=O)c1n[nH]c2c1CCC2)c1nc2ccccc2n1C(C)C | -10 | 1.88 |
| Cc1cccc2[nH]c(COC(=O)C3CCCC3)cc12 | -8 | 1.26 |
| C[C@H]1c2ccsc2CCN1C(=O)c1ccc(C(N)=O)cn1 | 0 | 0.04 |
| O=C(NCc1ccco1)c1cccc(Nc2c(Oc3ccc(Cl)cc3)cnn(-c3cccc(Cl)c3)c2=O)c1 | -18 | 2.58 |
| CC(C)C(NC(=O)C1CCCCC1C)C(=O)N1CC=C(c2ccccc2)CC1 (stereo not drawn) | 34 | -3.84 |
| COc1cccc([C@H]2N(c3cccc(Cl)c3)C(=O)[C@@H]3CCCN32)c1OC | -5 | 0.71 |
| C[C@@]1(C(=O)NC2CCCCCC2)Cn2c(nc3ccccc32)C(=O)N1CCc1ccccc1 | -24 | 2.36 |
| C[C@@H](C(=O)NCc1cccs1)N1CCn2ccnc2C1 | -14 | 1.77 |
| Cn1nnnc1N1CCC[C@H](CNc2ccc(Cl)cc2)C1 | -17 | 2.72 |
| COc1ccccc1OCC(=O)Nc1cnoc1 | -11 | 1.76 |
| O=C1C[C@H](N2CCCCC2)C(=O)N1Cc1ccccc1 | -7 | 0.84 |
| C[C@H](NC(=O)CCn1cnnn1)C1=CCCCC1 | 4 | -0.57 |
| Cc1ccc(C(=O)N[C@@H]2CCC[C@@H]2C(=O)N2CCc3ccccc3C2)c(O)n1 | 4 | -0.67 |
| O=C(NCCc1ccccc1)C1=Cc2ccccc2OC1 | -3 | 0.24 |
| O=C(c1cn(-c2ccc(F)cc2F)c(=O)c2ccccc12)N1CCC(Cc2ccccc2)CC1 | 11 | -1.26 |
| CS(=O)(=O)N[C@H]1CCN(Cc2cnc(-c3ccccc3)o2)C1 | -8 | 1.31 |
| Cc1cc2nc(C)c(=O)n(Cc3ccc(C(=O)NC4CCCCC4)cc3)c2cc1C | -6 | 0.93 |
| COc1ccccc1NS(=O)(=O)c1cc(-c2cnc(C)o2)ccc1OC | -7 | 1.26 |
| Cc1ccc(NC(=O)Nc2nc(C(=O)N3CCN(Cc4ccc5c(c4)OCO5)CC3)cs2)cc1 | 3 | -0.39 |
| CC(C)(O)[C@@H]1CCCN1C(=O)c1ccc(-c2ncon2)cc1 | -10 | 1.02 |

| Structure (SMILES) | % Inhibition [%] | Z score |
| --- | --- | --- |
| CCCCNc1nnc(-c2nn(C)cc2Cl)s1 | -27 | 3.94 |
| CC#CCCNC(=O)CCCOc1ccc(C)c(C)c1 | 6 | -0.7 |
| Cc1ccsc1-c1cn(Cc2nc3ccc(Cl)cc3[nH]2)nn1 | -5 | 0.62 |
| O=C(CN1CCCCCCC1)N1CCCc2ccccc21 | 5 | -0.71 |
| COc1cccc([C@@H](O)Cn2cnc(C(C)(C)C)cc2=O)c1 | 3 | -0.43 |
| COc1ccc(CC(=O)N2CC3(C[C@H](N4CCCCC4)CO3)C2)cc1 | -5 | 0.75 |
| O=C(CCC[C@@H]1[C@H]2CCCN3CCC[C@@H](CN1C(=O)c1ccccc1)[C@@H]23)Nc1ccc(N2CCOCC2)cc1 | 11 | -2.16 |
| CNC(=O)Nc1ccc(Cl)c(C(=O)O)c1 | -7 | 0.82 |
| Cc1nc(CC(=O)NCc2ccccc2C(F)(F)F)sc1C(=O)NCC(C)C | 3 | -0.42 |
| CCN1CCC(N(C)CCn2cncn2)C(C)C1 (stereo not drawn) | -9 | 0.8 |
| O=C(NC1CCCCCC1)[C@H]1CC(=O)N(c2[nH]nc3cccc(F)c23)C1 | 12 | -1.51 |
| CS(=O)(=O)N1CCC[C@H]1C(=O)N(CCc1ccccc1)Cc1cccnc1 | -9 | 1.7 |
| Cc1nc(N)nc(N2C[C@H](O)[C@@H](N(C)C)C2)c1Cl | 1 | -0.16 |
| C[C@H](NC(=O)CC(F)(F)F)c1ccccc1 | -5 | 0.94 |
| CCCCC(=O)Nc1cc(NC(=O)c2cnc[nH]2)ccc1OC | -14 | 1.86 |
| O=C(C1CCC(O)CC1)N1CCC[C@@H]1CN1CCCCCC1 (stereo partly drawn) | -13 | 1.69 |
| COCCN1C(=O)CC(CC(=O)N2CCCC(COc3ccccc3C)C2)(c2ccccc2F)C1=O (stereo not drawn) | 15 | -1.94 |
| CCCC(C)(C)NC(=O)c1sccc1CC | -7 | 1.08 |
| CCNC(=O)CN(C)CC(F)(F)c1ccc(F)cc1 | -10 | 1.22 |
| COc1cc(CC(=O)N2CCO[C@H](c3ncon3)C2)ccc1Cl | -6 | 0.99 |
| CCCCOc1ccc(C2C3C(=O)N(c4ccc5ccccc5c4)C(=O)C3ON2c2ccccc2)cc1OCC (stereo not drawn) | -4 | 0.47 |

| Structure (SMILES) | % Inhibition [%] | Z score |
| --- | --- | --- |
| O=C1CC(C(=O)N2CCOCC2)C(c2ccc3c(c2)OCCO3)O1 (stereo not drawn) | 39 | -5.05 |
| Cc1cc([C@@H]2CCCN2S(=O)(=O)NCc2ccccc2)on1 | -5 | 0.86 |
| CC(C)C1(CNC(=O)Cc2cncnc2)CC1 | -8 | 1.38 |
| COc1ccc(CCn2cc(-c3ccc4c(c3)OCCO4)nn2)cc1O | -7 | 0.63 |
| CCN1CC2(CCN(C(=O)c3cc[nH]n3)CC2)C[C@@H](c2ccccc2)C1=O | -8 | 1.53 |
| CNC(=O)c1ccc(Cn2cncc(Br)c2=O)cc1 | 1 | -0.1 |
| COc1ncncc1CN1CCC(C(F)(F)F)CC1 | -37 | 4.31 |
| Cc1cccc(C)c1OCC(=O)N(Cc1ccc(N(C)C)cc1)[C@H]1CCS(=O)(=O)C1 | -17 | 1.55 |
| Cc1cc(C)cc(CN2C(=O)NC3(CCS(=O)(=O)CC3)C2=O)c1 | 6 | -0.71 |
| COc1ccc(-c2n[nH]c(C)c2NC(=O)C2CCCCC2)cc1OC | 0 | 0.01 |
| COc1cc(NC(=O)CN2CCC[C@H](c3cc(O)ncn3)C2)cc(OC)c1 | -15 | 2.13 |
| O=C(Nc1ccc(N2CCN(C(=O)c3ccco3)CC2)c(Cl)c1)c1ccc2nsnc2c1 | -42 | 4.93 |
| CCOC(=O)c1n[nH]c(C(F)(F)F)c1Cl | 4 | -0.6 |
| CCC(=O)N(CC(=O)N1CCc2sccc2[C@@H]1COc1ccc(Cl)c(C)c1)CC1CC1 | 9 | -0.86 |
| CC[C@H](C)NC(=O)Cn1c(=O)n(Cc2ccc(F)cc2)c(=O)c2sccc21 | -11 | 1.38 |
| CC[C@H]1c2ccccc2CN1C(=O)NCc1ccnc(-n2cncn2)c1 | 10 | -1.22 |
| COCCc1nc([C@@H]2CC[C@H](N)C2)n(-c2ccc(OC(F)(F)F)cc2)n1 | 14 | -1.81 |
| Cc1ccc(NC(=O)Cn2nc(N3CCCC3)c3ccccc3c2=O)c(C)c1 | -3 | 0.4 |
| C[C@@H]1CCO[C@@H]1C(=O)Nc1cc(C2CCCC2)[nH]n1 | -7 | 1.27 |
| COc1ccc(Cl)cc1-c1c(C)nn(-c2nnn[nH]2)c1C | -5 | 0.8 |
| Cc1ccc(C)c(C2CCN(C(=O)c3c[nH]nn3)CC2)c1 | -1 | 0.13 |
